According to PMC4336329 (PLoS ONE, 2015):
The campaign covered roughly 310,000 compounds. About 14,000 (4.5%) showed an effect of 50% or more. The effect is printed as a negative number. The list shows a part of the results.

Each compound was assayed against human ether-à-go-go-related gene (hERG) potassium channel (human, UniProt Q12809) (assay: primary screen, population patch clamp on CHO cells stably expressing hERG).
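Further: peak tail current of the secondary pulse compared with the same well before compound.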

Chain of human ether-à-go-go-related gene (hERG) potassium channel (Q12809 whole entry, looked up): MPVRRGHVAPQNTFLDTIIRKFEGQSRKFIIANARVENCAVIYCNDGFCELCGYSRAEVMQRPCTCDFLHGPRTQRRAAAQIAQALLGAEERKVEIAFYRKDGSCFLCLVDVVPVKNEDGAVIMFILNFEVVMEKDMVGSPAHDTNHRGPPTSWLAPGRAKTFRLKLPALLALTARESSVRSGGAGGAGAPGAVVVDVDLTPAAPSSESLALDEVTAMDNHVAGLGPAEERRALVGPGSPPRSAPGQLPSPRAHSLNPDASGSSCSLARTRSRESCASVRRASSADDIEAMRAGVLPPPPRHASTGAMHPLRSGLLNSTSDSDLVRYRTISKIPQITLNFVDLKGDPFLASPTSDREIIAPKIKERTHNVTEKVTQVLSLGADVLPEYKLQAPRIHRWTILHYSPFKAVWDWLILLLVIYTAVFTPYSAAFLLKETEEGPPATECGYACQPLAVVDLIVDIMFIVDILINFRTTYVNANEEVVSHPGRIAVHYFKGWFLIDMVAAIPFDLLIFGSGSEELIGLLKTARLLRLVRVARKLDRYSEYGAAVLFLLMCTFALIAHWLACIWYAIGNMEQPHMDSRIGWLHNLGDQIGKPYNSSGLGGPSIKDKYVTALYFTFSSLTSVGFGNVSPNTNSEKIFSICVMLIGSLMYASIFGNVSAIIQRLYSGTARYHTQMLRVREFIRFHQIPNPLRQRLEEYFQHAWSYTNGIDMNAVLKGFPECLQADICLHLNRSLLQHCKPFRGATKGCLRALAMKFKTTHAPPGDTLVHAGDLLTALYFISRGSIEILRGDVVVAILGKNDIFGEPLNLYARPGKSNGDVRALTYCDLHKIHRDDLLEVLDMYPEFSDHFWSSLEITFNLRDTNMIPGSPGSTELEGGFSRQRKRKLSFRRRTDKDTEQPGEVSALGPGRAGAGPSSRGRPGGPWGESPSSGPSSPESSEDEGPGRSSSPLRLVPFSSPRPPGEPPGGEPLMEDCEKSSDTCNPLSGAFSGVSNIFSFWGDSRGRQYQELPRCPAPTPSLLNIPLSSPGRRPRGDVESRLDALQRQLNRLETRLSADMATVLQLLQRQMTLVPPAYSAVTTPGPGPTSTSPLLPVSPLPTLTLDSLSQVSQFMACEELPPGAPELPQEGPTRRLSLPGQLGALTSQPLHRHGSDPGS

| Compound | hERG current change (%, negative = inhibition) at 10uM |
| --- | --- |
| CCCCN1C(=O)c2ccc(C(=O)OCC(=O)N3CCN(c4ccccc4)CC3)cc2C1=O | -2.39% |
| CN(C)/C=C/C(=O)c1ccc(S(=O)c2ccccc2)cc1 (stereo not drawn) | 33.4% |
| COc1cc(OC)c(/C=C2\SC(=O)N(CC(=O)Nc3ccccc3F)C2=O)c(OC)c1 | 13.8% |
| COC(=O)c1nnn(-c2nonc2N)c1CSc1ccccn1 | -3.45% |
| Cn1c(=O)c(C(=O)COC(=O)c2cc(C(F)(F)F)nc3c(C(F)(F)F)cccc23)c(N)n(CC2CC2)c1=O | -13.2% |
| CCOC(=O)c1nnn(-c2nc(OC)nc(N3CCCC3)n2)c1-c1ccccc1 | 12.3% |
| CC(C)n1cnc2c(N(C)c3ccccc3)nc(N(CCN(C)C)Cc3ccccc3)nc21 | -73.1% |
| CC(=O)c1cccc(S(=O)(=O)Nc2cccc(S(=O)(=O)NC3=NCCC3)c2)c1 | 11.2% |
| CC1Cc2ccccc2N1C(=O)COc1cccc(-n2cnnn2)c1 (stereo not drawn) | -27% |
| COc1cccc(CNC(=O)CCC2CCCN(C(=O)c3csc(C(C)C)n3)C2)c1 (stereo not drawn) | -2.21% |
| O=C(Nc1nnc(COc2ccc(Cl)cc2)s1)C1CCCO1 (stereo not drawn) | -11% |
| Cc1ccc(N(C(=O)c2csnn2)C(C(=O)NC2CCCC2)c2ccccn2)cc1 (stereo not drawn) | 9.02% |
| Cc1cccc(N)c1SC1CCCCC1O (stereo not drawn) | -5.84% |
| Cc1nn(C)c(C)c1S(=O)(=O)N1CCCC(C(=O)NC2CCCCCC2)C1 (stereo not drawn) | 5.43% |
| O=C(/C=C/c1ccc2c(c1)OCO2)N1CCOCC1 | -6.03% |
| CCC(=O)Nc1cccc(-c2nc3ccccc3o2)c1 | -4% |
| COc1ccc(CC(=O)Nc2ccc(S(=O)(=O)Nc3cc(C)on3)cc2)cc1OC | 21.6% |
| CC1CC(C)CN(CCCn2c(=S)[nH]c3ccccc3c2=O)C1 (stereo not drawn) | -53% |
| CC[C@H](C)[C@@H](CN[C@H](CCCCNC)CNC)NCC1CCCC1 | 29.8% |
| COc1ccc(S(=O)(=O)Nc2ccc(N3CCOCC3)cc2)cc1 | 7.57% |
| CCCc1cc(=O)oc2cc(OCC(=O)NCC3CCC(C(=O)O)CC3)ccc12 (stereo not drawn) | -16.1% |
| O=C(NC1CC1)C1=C[C@@H](c2csc3ccccc23)C[C@@H](OCc2ccc(CO)cc2)O1 | -9.44% |
| Cc1c(Cc2ccccc2)sc(NC(=O)/C=C/c2cccc3ccccc23)c1C(N)=O | 20% |
| Cc1ccc(CNC(=O)c2cc3c(s2)CN(Cc2ccccc2)C3)cc1.Cl | 3.85% |
